Results on 89 molecules are retold here after PubChem BioAssay AID463173 (ICCB-Longwood Screening Facility, Harvard Medical School, 2010).

About 1,700 (3.3%) of roughly 52,000 compounds were called active. Cut-off read from the data, not from the text of the source: active = survival mostly below about 52% (no sharp cut-off); inactive = mostly above about 56%. The list shows a part of the results.

This assay has as its system Wild type. As to the kind of experiment: growth inhibition of S. aureus wild type versus tarO mutant, primary screen, teichoic acid synthesis inhibitors, RN4220, OD600 (AID 463173). Particulars: S. aureus RN4220 wild type/DeltatarO growth, OD600, 18 h, hits give low values, screened at 18.75 µg/mL (by protocol).
As to `CCN(Cc1ccccc1)S(=O)(=O)c1ccc(-c2coc(C)n2)cc1`, the survival is inactive: 125%.

In the case of `CC1CCCN(S(=O)(=O)c2ccc3c(c2)CCN3C(=O)CCC(=O)O)C1` (centres undefined), the survival is inactive: 80%.

Take `CCC(=O)N(Cc1cccnc1)Cc1cc2cc(OC)ccc2[nH]c1=O`: the survival was inactive: 104%.

As to `CCC(C)Nc1ncnc2c1cnn2-c1ccc(F)cc1` (centres undefined), the survival was inactive: 71%.

As to `Cc1cccc(Cc2c(C)nc3c(-c4ccccc4)c(C)[nH]n3c2=O)c1`, the survival is active: 4%.

Take `O=C(NCCc1ccncc1)Nc1c[nH]c2ccccc2c1=O`: the survival was inactive: 99%.

On to `COc1ccc(NS(=O)(=O)c2ccc3nc(-c4ccccc4)[nH]c3c2)cc1`, for which the survival is inactive: 81%.

In the case of `Cc1cc(C(=O)Nc2ccc(-n3c(C)nc4ccccc4c3=O)cc2)ccc1[N+](=O)[O-]`, the survival was inactive: 129%.

As to `CCc1ccc(-n2c(=O)c3c4c(sc3n(CC(=O)N3CCC(C)CC3)c2=O)CCC4)cc1`, the survival was inactive: 81%.

On to `CCc1nonc1NC(=O)c1oc2ccc(Br)cc2c1C`, for which the survival was inactive: 85%.

In the case of `Cc1ccc(Cl)cc1NC(=O)c1oc2ccc(S(=O)(=O)N3CCCCC3)cc2c1C`, the survival was inactive: 91%.

For `COC(=O)CN(C#N)c1nc(SC)nc(N(C)C)n1`, the survival was inactive: 101%.

Take `Cc1ccc(NC(=O)C2CCCN(S(=O)(=O)c3cccc4cccnc34)C2)cc1` (centres undefined): the survival was inactive: 119%.

Consider `Cc1ccc(S(=O)(=O)c2cn(Cc3cccc(C)c3)c3cc4c(cc3c2=O)OCO4)cc1`, for which the survival was inactive: 144%.

Take `Cc1ccc(Cl)cc1NC(=O)c1oc2ccc(S(=O)(=O)N(C)C3CCCCC3)cc2c1C`: the survival is inactive: 85%.

With `Cc1nn(C(C)C(=O)N2CCN(c3ccc(Cl)cc3)CC2)c(=O)c2cc3occc3n12` (centres undefined), the survival was inactive: 81%.

In the case of `COc1ccc(CNCCNC(=O)c2cccs2)c(OC)c1OC`, the survival was inactive: 108%.

Take `Cc1cccc(NC(=S)N2CCC(NC(=O)c3ccco3)CC2)c1`: the survival is inactive: 97%.

Take `CC(=O)CSc1nnc2cc(C)c3cc(C)cc(C)c3n12`: the survival was inactive: 116%.

On to `CSc1ccc(/C=C/c2nc3ccccc3n2S(=O)(=O)c2cccc(Cl)c2)cc1`, for which the survival was inactive: 66%.

Turning to `O=C1CSC(=S)N1Nc1ccccc1`, the survival was inactive: 106%.

Consider `CCC(CC)C(=O)Nc1nnc(SCc2cc(=O)n3cccc(C)c3n2)s1`, for which the survival is inactive: 87%.

For the molecule `CCOc1ccc(CN(C(=O)c2cc(=O)c3cc(C)cc(C)c3o2)C2CCS(=O)(=O)C2)cc1` (centres undefined), the survival was inactive: 84%.

In the case of `COc1cc(NC(=O)CCc2c(C)nc3cc(-c4ccccc4)nn3c2C)cc(OC)c1OC`, the survival is inactive: 79%.

With `Cc1ccc2c(c1)c(=O)c(C(=O)c1ccc3c(c1)OCO3)cn2Cc1ccc(Cl)cc1`, the survival is inactive: 69%.

For the molecule `CCOc1ccc(CN2C(=O)c3ccccc3Sc3ccc(C(=O)O)cc32)cc1`, the survival is inactive: 68%.

`O=C(NCCc1ccc(Cl)cc1)C(=O)NCC(c1ccco1)S(=O)(=O)c1ccc(Cl)cc1` (centres undefined): the survival was inactive: 78%.

Take `CCCN1C(=O)C2(c3ccccc31)c1c(oc3ccc(F)cc3c1=O)C(=O)N2CCCOC(C)C` (centres undefined): the survival was inactive: 102%.

Turning to `Cc1oc2ncnc(N3CCCCC3)c2c1C(=O)N1CCN(c2cccc(Cl)c2)CC1`, the survival is inactive: 87%.

Take `Oc1ccc(CNc2ccccc2Cl)c2cccnc12`: the survival is inactive: 93%.

Turning to `c1coc(-c2nc3n(n2)C2(CCCCC2)[C@@H]2CCCC[C@@H]2N3)c1`, the survival is inactive: 99%.

For the molecule `CC(C)(C)n1nnnc1C(c1cccs1)N1CCCc2ccccc21` (centres undefined), the survival is inactive: 120%.

Take `CN(C(=O)CSc1nnc(-c2ccccc2F)o1)C1CCCCC1`: the survival was inactive: 76%.

Take `Cc1cccc(C(=O)Nc2nnc(S(=O)(=O)N(C)c3ccccc3C)s2)c1`: the survival is inactive: 37%.

Turning to `Cc1ccc(-n2c(-c3ccco3)nc3c(cnn3-c3ccccc3Cl)c2=O)cc1`, the survival is inactive: 131%.

On to `COc1ccc(CNC(=O)CCCn2nc(C)c3c(C)n(-c4ccccc4)nc3c2=O)cc1`, for which the survival is inactive: 70%.

On to `COc1ccc(OC)c(NS(=O)(=O)c2ccc(-c3cc(C)no3)s2)c1`, for which the survival was inactive: 72%.

For the molecule `CCN(C(=O)CSc1nc(-c2ccc(C(C)C)cc2)no1)c1cccc(C)c1`, the survival was inactive: 72%.

As to `CCc1ccc(CN2CCc3nc(N4CCN(CC)CC4)ncc3C2)cc1`, the survival was inactive: 81%.

For the molecule `CN(C)c1ccc(CNC(=O)CCn2cccn2)cc1`, the survival is inactive: 66%.

Turning to `CCn1cc2nc(SCc3cccc(Cl)c3)n(Cc3ccc(C)cc3)c(=O)c2n1`, the survival was inactive: 53%.

As to `Cc1ccc(Cl)cc1Nc1nn2c(=O)c3ccc(C(=O)N4CCCC(C)C4)cc3nc2s1` (centres undefined), the survival is inactive: 69%.

As to `CC(C)c1cnc2c(c1SCC(=O)Nc1cccc(F)c1)c(=O)n(C)c(=O)n2C`, the survival was inactive: 71%.

Turning to `O=C(c1cc2ccccc2oc1=O)N(Cc1ccc(F)cc1)Cc1ccco1`, the survival was inactive: 105%.

For `COc1ccc(CCNS(=O)(=O)c2cc(-c3cc(C)no3)ccc2C)cc1OC`, the survival is inactive: 69%.

Take `O=C(Nc1cccc(F)c1)C1CCN(S(=O)(=O)c2cccc3nsnc23)CC1`: the survival was inactive: 82%.

Consider `Cc1cc(C)cc(OC(C)C(=O)Nc2c(C(=O)c3ccccc3)oc3ccccc23)c1` (centres undefined), for which the survival is active: -1%.

On to `c1ccc(CSc2nc3ncccc3[nH]2)cc1`, for which the survival was inactive: 66%.

For the molecule `O=C(Nc1cccc(C(F)(F)F)c1)C1CCCN1S(=O)(=O)c1cccc2nsnc12` (centres undefined), the survival was inactive: 76%.

`Cc1ccc(CCNC(=O)c2ccc3c(c2)N(Cc2cccc(Cl)c2)C(=O)c2ccccc2S3(=O)=O)cc1`: the survival is inactive: 79%.

As to `CSc1ccc(C2c3c(oc4cc(C)cc(C)c4c3=O)C(=O)N2Cc2ccco2)cc1` (centres undefined), the survival is inactive: 81%.

Consider `CCCN(CCC)S(=O)(=O)c1ccc(C(=O)Nc2sc3c(c2C(=O)OC)CCN(CC)C3)cc1`, for which the survival was inactive: 85%.

In the case of `CCc1ccc(-c2csc(Nc3ncccn3)n2)cc1`, the survival is inactive: 97%.

On to `Cc1ccc(S(=O)(=O)N2CCC(C(=O)Nc3ccc(C)c(Cl)c3)CC2)cc1`, for which the survival is inactive: 122%.

In the case of `Cc1cn2c(=O)cc(COC(=O)c3cccc(NC(=O)c4ccccc4C)c3)nc2s1`, the survival is inactive: 71%.

As for `COc1ccc(-n2nc(C)c3c(C(F)(F)F)cc(-c4cccnc4)nc32)cc1`, the survival was inactive: 86%.

For `COc1ccc(C(=O)COC(=O)C(Cc2c[nH]c3ccccc23)NC(=O)c2ccc(C(C)(C)C)cc2)cc1` (centres undefined), the survival was inactive: 93%.

In the case of `COc1ccc(CCNC(=O)C(=O)NCC(c2cccs2)S(=O)(=O)c2ccc(C)cc2)cc1` (centres undefined), the survival was inactive: 97%.

As for `O=C1c2[nH]nc(-c3ccccc3O)c2C(c2cccc(OCc3ccccc3)c2)N1CCO` (centres undefined), the survival was inactive: 91%.

In the case of `CCOC(=O)c1c(C)[nH]c(C)c1S(=O)(=O)N1CCN(c2cccc(C(F)(F)F)c2)CC1`, the survival is inactive: 121%.

Regarding `CCN(CC)C(=O)Cn1c(=O)n(-c2ccc(Cl)cc2)c(=O)c2c3c(sc21)CCC3`, the survival is inactive: 73%.

For `CCOC(=O)c1cc(OC(=O)c2ccccc2C)n(-c2ccccc2)n1`, the survival is inactive: 68%.

Turning to `COCCCNC(=O)C1CCN(c2nc3ccc(C)cc3[nH]2)CC1`, the survival is inactive: 76%.

As for `COc1cccc(N2CCN(C(=O)CCS(=O)(=O)c3ccc4c(c3)oc(=O)n4C)CC2)c1`, the survival is inactive: 69%.

As to `O=C(COc1cccc(-n2cnnn2)c1)N1CCOCC1`, the survival is inactive: 105%.

Take `COc1cc(OC)cc(-c2cc3nc(C)c(CCC(=O)NCc4ccc(Cl)cc4)c(C)n3n2)c1`: the survival was inactive: 147%.

Turning to `Cc1cc2oc(=O)cc(C)c2c2occ(-c3ccc(Cl)cc3)c12`, the survival is inactive: 81%.

On to `COc1ccc(C(=O)Nc2ccc(-n3nncc3-c3ccccc3)cc2)cc1OC`, for which the survival was inactive: 124%.

With `Cc1cccc(N2CCN(C(=O)Cn3ncc4c5ccccc5n(C)c4c3=O)CC2)c1C`, the survival is inactive: 71%.

For `Clc1ccc(C(c2ccccc2)c2c[nH]c3ccccc23)s1` (centres undefined), the survival is active: 4%.

Consider `Cc1ccc2[nH]c3c(=O)n(CC(=O)N4CCCCC4)ncc3c2c1`, for which the survival is inactive: 56%.

Regarding `COc1ccc(OC)c(CNC(=O)C2CCN(c3nc4ccccc4nc3C(F)(F)F)CC2)c1`, the survival is inactive: 124%.

`Cc1ccc(C)n1-c1nnc(N2CCCC(C(=O)NCc3cccc(F)c3)C2)s1` (centres undefined): the survival is inactive: 81%.

As to `Cc1ccc(-n2nc(CO)c(C(=O)NCc3cccnc3)n2)cc1`, the survival is inactive: 88%.

For the molecule `CCc1ccccc1Nc1nc2ccccc2c2nncn12`, the survival was inactive: 81%.

For the molecule `CCc1ccc(S(=O)(=O)c2cn(Cc3ccccc3)c3cc(F)c(F)cc3c2=O)cc1`, the survival is inactive: 88%.

With `COc1ccccc1NC(=O)CSc1ncc2c(n1)-c1cc(Cl)ccc1N(Cc1ccccc1)S2(=O)=O`, the survival is inactive: 77%.

For the molecule `Cc1ccc(OCC(=O)Nc2ccc3nc(SCC(=O)N4CCOCC4)sc3c2)cc1`, the survival is inactive: 96%.

Take `CCCCNC(=O)CCCn1c(=O)c2ccccc2n(Cc2cccc(Cl)c2)c1=O`: the survival was inactive: 99%.

With `Cn1c(CN2CCCCC2)nc2cc(NC(=O)c3ccccc3Cl)ccc21`, the survival was inactive: 95%.

For the molecule `CCCCc1c(C)nc2c(-c3ccc(OC)cc3)c(C)[nH]n2c1=O`, the survival was active: 12%.

With `O=C(NC1CCCC1)c1cc(Nc2cccc(C(F)(F)F)c2)nc2ccccc12`, the survival is inactive: 73%.

Turning to `CCC(=O)N1CCc2cc(Br)cc(S(=O)(=O)CCC(=O)N3CCN(c4ccccc4F)CC3)c21`, the survival was inactive: 64%.

Take `COc1ccc2nc(NC(=O)c3nc(SC(C)C)ncc3Cl)sc2c1`: the survival was inactive: 113%.

As for `NC(=O)c1nc(Nc2ccccc2)sc1NC(=O)c1ccccc1Br`, the survival is inactive: 80%.

`O=C(C1CCN(S(=O)(=O)Cc2ccccc2)CC1)N1CCN(c2ccccc2)CC1`: the survival was inactive: 83%.

For the molecule `CCOC(=O)c1cccc(NS(=O)(=O)c2ccc(-c3cnc(C4CC4)o3)cc2)c1`, the survival is inactive: 73%.

Turning to `CCOC(=O)c1cccc(NC(=O)c2cc3c(-c4cccc(OC)c4)nn(C)c3s2)c1`, the survival is inactive: 65%.

Take `COCCCNC(=O)CSc1nc2c(sc3ccccc32)c(=O)n1CCc1ccccc1`: the survival was inactive: 64%.
